Results from the supplement of paper PMC4604168 (melanoma cell lines).
The other results are listed elsewhere or left out. Most values come without repeats; read them as rough.

Each compound was assayed on COLO829 (assay: cell count relative to DMSO control; melanoma cells; higher = more viable cells). Conditions: library dose: low library concentration; 72 h.
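Also: cell number obtained by counting DAPI-stained nuclei in high-throughput microscope images with image analysis software, screen run in 1,536-well plates.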

For `O=C(O)C(=O)Nc1sc2c(c1C(=O)O)CCNC2` + Cn1cc(/C=C2\C(=O)Nc3cccnc32)c2ccccc21 [GW441756] (first compound 1.66667 µM, partner dose 0.4 µM), which cell count is on record?
The cell count was 97.9%.

For `O=C(O)C(=O)Nc1sc2c(c1C(=O)O)CCNC2` + CCCCCCCCCCCC1=C(O)C(=O)C=C(O)C1=O [Embelin] (first compound 1.66667 µM, partner dose 1.2 µM), which cell count is on record?
Its cell count is 86.8%.

Which cell count does the source give for `COc1ccc2c(c1)CCC1C2CCC2(C)C(NCCCCCCN3C(=O)C=CC3=O)CCC12` (stereo unspecified) + CCN(CC)CCCCNc1ncc2cc(-c3cc(OC)cc(OC)c3)c(NC(=O)NC(C)(C)C)nc2n1 [PD173074] (first compound 0.4 µM, partner dose 0.1 µM) here?
The cell count was 109%.

How did the cell count turn out when `COC(=O)c1sccc1S(=O)(=O)Nc1ccc(Nc2ccccc2)cc1OC` + COc1cc2ncnc(Nc3ccc(Oc4ccccc4)cc3)c2cc1OC [SrcI1] (first compound 1 µM, partner dose 2 µM) was run?
The cell count was 102%.

For `CCN(CC)CCCCNc1ncc2cc(-c3cc(OC)cc(OC)c3)c(NC(=O)NC(C)(C)C)nc2n1` + COc1ccc(COc2ccc(Cc3cnc(N)nc3N)cc2OC)cc1 [GW2580] (first compound 0.1 µM, partner dose 1 µM), which cell count is on record?
Its cell count is 99.2%.

With `COc1cc(N2CCC(N3CCN(C)CC3)CC2)ccc1Nc1ncc(Cl)c(Nc2ccccc2S(=O)(=O)C(C)C)n1` + CC(C)CCN1c2nc(Nc3cc(F)c(O)c(F)c3)ncc2N(C)C(=O)C1C [BID1870] (first compound 0.08 µM, partner dose 0.2 µM) as the compound, how does the cell count read?
Its cell count is 105%.

`c1cc(-c2cnn3cc(-c4ccc(OCCN5CCCCC5)cc4)cnc23)ccn1` [Dorsomorphin] + Cn1cc(/C=C2\C(=O)Nc3cccnc32)c2ccccc21 [GW441756] (first compound 0.4 µM, partner dose 0.4 µM) was tested. Which cell count did it give?
The cell count was 107%.

With `Cn1cc(/C=C2\C(=O)Nc3cccnc32)c2ccccc21` + CCCCCCCCCCCC1=C(O)C(=O)C=C(O)C1=O [Embelin] (first compound 0.4 µM, partner dose 1.2 µM) as the compound, how does the cell count read?
Its cell count is 105%.

How did the cell count turn out when `Oc1nc(-c2ccc(C(F)(F)F)cc2)nc2c1CSCC2` + Cn1cc(/C=C2\C(=O)Nc3cccnc32)c2ccccc21 [GW441756] (first compound 2 µM, partner dose 0.4 µM) was run?
The cell count was 81%.

Which cell count does the source give for `COc1ccc(-c2ccc3c(N4CCOCC4)nc(N4C[C@@H](C)O[C@@H](C)C4)nc3n2)cc1CO` + Cc1cc([N+](=O)[O-])ccc1NS(=O)(=O)c1cc(Cl)ccc1Cl [FH535] (first compound 0.02 µM, partner dose 1 µM) here?
Its cell count is 85%.

How did the cell count turn out when `COc1cc(N2CCC(N3CCN(C)CC3)CC2)ccc1Nc1ncc(Cl)c(Nc2ccccc2S(=O)(=O)C(C)C)n1` + Cn1cc(/C=C2\C(=O)Nc3cccnc32)c2ccccc21 [GW441756] (first compound 0.08 µM, partner dose 0.4 µM) was run?
The cell count was 117%.

With `CCN(CC)CCCCNc1ncc2cc(-c3cc(OC)cc(OC)c3)c(NC(=O)NC(C)(C)C)nc2n1` + Cn1cc(/C=C2\C(=O)Nc3cccnc32)c2ccccc21 [GW441756] (first compound 0.1 µM, partner dose 0.4 µM) as the compound, how does the cell count read?
Its cell count is 104%.

How did the cell count turn out when `N#Cc1c(O)c2c(-c3ccc(-c4ccccc4O)cc3)csc2[nH]c1=O` + O=c1cc(-c2cccc3c2Sc2ccccc2S3)oc(N2CCOCC2)c1 [KU55933] (first compound 2 µM, partner dose 1 µM) was run?
The cell count was 94.1%.

With `COc1ccc(COc2ccc(Cc3cnc(N)nc3N)cc2OC)cc1` + CC(C)CCN1c2nc(Nc3cc(F)c(O)c(F)c3)ncc2N(C)C(=O)C1C [BID1870] (first compound 1 µM, partner dose 0.2 µM) as the compound, how does the cell count read?
The cell count was 106%.

For `COc1cc2ncnc(Nc3ccc(Oc4ccccc4)cc3)c2cc1OC` + c1cc(-c2cnn3cc(-c4ccc(OCCN5CCCCC5)cc4)cnc23)ccn1 [Dorsomorphin] (first compound 2 µM, partner dose 0.4 µM), which cell count is on record?
Its cell count is 110%.

With `O=C(O)C(=O)Nc1sc2c(c1C(=O)O)CCNC2` + c1cc(-c2cnn3cc(-c4ccc(OCCN5CCCCC5)cc4)cnc23)ccn1 [Dorsomorphin] (first compound 1.66667 µM, partner dose 0.4 µM) as the compound, how does the cell count read?
The cell count was 87.7%.
